From the supplement of paper PMC10369915
This is one part of the list. Rule as the data show it: active = 3.2 or more and inactive = the rest. The signal is at background level for most entries.
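Also: displayed peptides selected on beads carrying the immobilized SH2 domain, with library peptides lacking any tyrosine serving as negative controls.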

Each binder was assayed against SHP2 C-SH2 domain E139D (assay: enrichment score (SH2-bound / input frequency) (ratio); bacterial display of known human phosphotyrosine sites (pTyr-Var adds point mutants) read by sequencing; higher = stronger binding; tyrosines were phosphorylated by kinases first). Conditions: peptide library: pTyr-Var.
For ATGGFYSFGGG [KRT24_Y120_YF], the enrichment score was inactive: 1.4. For KIKGWYEKCEP [KRT26_Y119], the enrichment score was inactive: 0.952. In the case of EQLQSYQAEII [KRT33A_Y268], the enrichment score is reported as inactive: 0.906. With RMLREYQELMS [KRT74_Y425] the enrichment score was inactive: 0.911. For EAESWYQTKYE [KRT75_Y342], the enrichment score was inactive: 0.822. With RLLCEYQELMN [KRT75_Y434_R432C] the enrichment score was inactive: 0.688. For GLGGGYGGASG [KRT8_Y54], the enrichment score was inactive: 0.51. With SFIGQYSGKKE [L1CAM_Y1229] the enrichment score was inactive: 1.26. With LLANAYIYVVQ [L1CAM_Y418] the enrichment score was inactive: 1.34. LLANAYIYDVQ [L1CAM_Y418_V421D] was tested, and the enrichment score was inactive: 1.07. STFVPYEIKVQ [L1CAM_Y784] was tested, and the enrichment score was inactive: 0.923. With KENITYMKSEQ [L1TD1_Y24_R27S] the enrichment score was inactive: 0.775. In the case of RSGIYYKPESL [L2HGDH_Y103_H98R], the enrichment score is reported as inactive: 1. In the case of EKKQTYGSCRK [LACTB_Y473_R469K], the enrichment score is reported as inactive: 1.24. With LKYAIYFEARE [LAMA2_Y1258] the enrichment score was inactive: 1.22. LKFAIYFEARE [LAMA2_Y1258_YF] was tested, and the enrichment score was inactive: 1.49. RLEPVYFVAPA [LAMC2_Y250_D247E] was tested, and the enrichment score was inactive: 0.942. For TQTPPYVKKHP [LARP1B_Y457], the enrichment score was inactive: 0.93. For TQTPPYVKKHR [LARP1B_Y457_P462R], the enrichment score was inactive: 1.05.

The binders below were run against SHP2 C-SH2 domain wild-type in the same assay as above. Conditions: peptide library: pTyr-Var.
In the case of ATGGFYSFGGG [KRT24_Y120_YF], the enrichment score is reported as inactive: 1.16. With KIKGWYEKCEP [KRT26_Y119] the enrichment score was inactive: 1.02. With EQLQSYQAEII [KRT33A_Y268] the enrichment score was inactive: 0.786. RMLREYQELMS [KRT74_Y425] was tested, and the enrichment score was inactive: 0.728. For EAESWYQTKYE [KRT75_Y342], the enrichment score was inactive: 0.778. With RLLCEYQELMN [KRT75_Y434_R432C] the enrichment score was inactive: 1.21. For GLGGGYGGASG [KRT8_Y54], the enrichment score was inactive: 0.617. With SFIGQYSGKKE [L1CAM_Y1229] the enrichment score was inactive: 0.984. In the case of LLANAYIYVVQ [L1CAM_Y418], the enrichment score is reported as inactive: 1.55. In the case of LLANAYIYDVQ [L1CAM_Y418_V421D], the enrichment score is reported as inactive: 1.6. For STFVPYEIKVQ [L1CAM_Y784], the enrichment score was inactive: 1. With KENITYMKSEQ [L1TD1_Y24_R27S] the enrichment score was inactive: 0.571. For RSGIYYKPESL [L2HGDH_Y103_H98R], the enrichment score was inactive: 0.766. EKKQTYGSCRK [LACTB_Y473_R469K] was tested, and the enrichment score was inactive: 1.29. LKYAIYFEARE [LAMA2_Y1258] was tested, and the enrichment score was inactive: 1.37. For LKFAIYFEARE [LAMA2_Y1258_YF], the enrichment score was inactive: 2.37. For RLEPVYFVAPA [LAMC2_Y250_D247E], the enrichment score was inactive: 1.04. For TQTPPYVKKHP [LARP1B_Y457], the enrichment score was inactive: 0.809. TQTPPYVKKHR [LARP1B_Y457_P462R] was tested, and the enrichment score was inactive: 0.903.

Each binder was assayed against SHP2 N-SH2 domain L43F in the same assay as above. Conditions: peptide library: pTyr-Var.
With ATGGFYSFGGG [KRT24_Y120_YF] the enrichment score was inactive: 1.15. With KIKGWYEKCEP [KRT26_Y119] the enrichment score was inactive: 0.846. EQLQSYQAEII [KRT33A_Y268] was tested, and the enrichment score was inactive: 0.719. For RMLREYQELMS [KRT74_Y425], the enrichment score was inactive: 0.703. With EAESWYQTKYE [KRT75_Y342] the enrichment score was inactive: 0.843. For RLLCEYQELMN [KRT75_Y434_R432C], the enrichment score was inactive: 1.4. In the case of GLGGGYGGASG [KRT8_Y54], the enrichment score is reported as inactive: 0.606. SFIGQYSGKKE [L1CAM_Y1229] was tested, and the enrichment score was inactive: 0.923. With LLANAYIYVVQ [L1CAM_Y418] the enrichment score was inactive: 1.31. For LLANAYIYDVQ [L1CAM_Y418_V421D], the enrichment score was inactive: 1.32. STFVPYEIKVQ [L1CAM_Y784] was tested, and the enrichment score was inactive: 1.08. With KENITYMKSEQ [L1TD1_Y24_R27S] the enrichment score was inactive: 0.599. In the case of RSGIYYKPESL [L2HGDH_Y103_H98R], the enrichment score is reported as inactive: 0.872. In the case of EKKQTYGSCRK [LACTB_Y473_R469K], the enrichment score is reported as inactive: 1.09. In the case of LKYAIYFEARE [LAMA2_Y1258], the enrichment score is reported as inactive: 1.71. With LKFAIYFEARE [LAMA2_Y1258_YF] the enrichment score was inactive: 2.8. In the case of RLEPVYFVAPA [LAMC2_Y250_D247E], the enrichment score is reported as inactive: 0.997. For TQTPPYVKKHP [LARP1B_Y457], the enrichment score was inactive: 0.744. TQTPPYVKKHR [LARP1B_Y457_P462R] was tested, and the enrichment score was inactive: 1.11.

Each binder was assayed against SHP2 N-SH2 domain T42A in the same assay as above. Conditions: peptide library: pTyr-Var.
ATGGFYSFGGG [KRT24_Y120_YF] was tested, and the enrichment score was inactive: 1.17. In the case of KIKGWYEKCEP [KRT26_Y119], the enrichment score is reported as inactive: 0.848. EQLQSYQAEII [KRT33A_Y268] was tested, and the enrichment score was inactive: 0.834. For RMLREYQELMS [KRT74_Y425], the enrichment score was inactive: 0.81. For EAESWYQTKYE [KRT75_Y342], the enrichment score was inactive: 0.75. In the case of RLLCEYQELMN [KRT75_Y434_R432C], the enrichment score is reported as inactive: 1.22. GLGGGYGGASG [KRT8_Y54] was tested, and the enrichment score was inactive: 0.718. SFIGQYSGKKE [L1CAM_Y1229] was tested, and the enrichment score was inactive: 0.909. LLANAYIYVVQ [L1CAM_Y418] was tested, and the enrichment score was inactive: 1.17. LLANAYIYDVQ [L1CAM_Y418_V421D] was tested, and the enrichment score was inactive: 1.07. STFVPYEIKVQ [L1CAM_Y784] was tested, and the enrichment score was inactive: 0.816. In the case of KENITYMKSEQ [L1TD1_Y24_R27S], the enrichment score is reported as inactive: 0.581. In the case of RSGIYYKPESL [L2HGDH_Y103_H98R], the enrichment score is reported as inactive: 0.728. EKKQTYGSCRK [LACTB_Y473_R469K] was tested, and the enrichment score was inactive: 1.33. With LKYAIYFEARE [LAMA2_Y1258] the enrichment score was inactive: 1.21. For LKFAIYFEARE [LAMA2_Y1258_YF], the enrichment score was active: 4.06. In the case of RLEPVYFVAPA [LAMC2_Y250_D247E], the enrichment score is reported as inactive: 1.02. With TQTPPYVKKHP [LARP1B_Y457] the enrichment score was inactive: 0.861. For TQTPPYVKKHR [LARP1B_Y457_P462R], the enrichment score was inactive: 0.947.

What follows are binders tested against SHP2 N-SH2 domain T52S in the same assay as above. Conditions: peptide library: pTyr-Var.
For ATGGFYSFGGG [KRT24_Y120_YF], the enrichment score was inactive: 1.22. For KIKGWYEKCEP [KRT26_Y119], the enrichment score was inactive: 0.709. EQLQSYQAEII [KRT33A_Y268] was tested, and the enrichment score was inactive: 0.851. In the case of RMLREYQELMS [KRT74_Y425], the enrichment score is reported as inactive: 0.754. EAESWYQTKYE [KRT75_Y342] was tested, and the enrichment score was inactive: 0.825. In the case of RLLCEYQELMN [KRT75_Y434_R432C], the enrichment score is reported as inactive: 0.922. GLGGGYGGASG [KRT8_Y54] was tested, and the enrichment score was inactive: 0.642. SFIGQYSGKKE [L1CAM_Y1229] was tested, and the enrichment score was inactive: 0.989. In the case of LLANAYIYVVQ [L1CAM_Y418], the enrichment score is reported as inactive: 1.19. With LLANAYIYDVQ [L1CAM_Y418_V421D] the enrichment score was inactive: 0.931. For STFVPYEIKVQ [L1CAM_Y784], the enrichment score was inactive: 0.904. With KENITYMKSEQ [L1TD1_Y24_R27S] the enrichment score was inactive: 0.543. RSGIYYKPESL [L2HGDH_Y103_H98R] was tested, and the enrichment score was inactive: 0.859. With EKKQTYGSCRK [LACTB_Y473_R469K] the enrichment score was inactive: 1.35. LKYAIYFEARE [LAMA2_Y1258] was tested, and the enrichment score was inactive: 1.22. LKFAIYFEARE [LAMA2_Y1258_YF] was tested, and the enrichment score was active: 3.72. For RLEPVYFVAPA [LAMC2_Y250_D247E], the enrichment score was inactive: 1.12. In the case of TQTPPYVKKHP [LARP1B_Y457], the enrichment score is reported as inactive: 0.721. TQTPPYVKKHR [LARP1B_Y457_P462R] was tested, and the enrichment score was inactive: 1.09.

The binders below were run against SHP2 N-SH2 domain wild-type in the same assay as above. Conditions: peptide library: pTyr-Var.
With ATGGFYSFGGG [KRT24_Y120_YF] the enrichment score was inactive: 1.18. In the case of KIKGWYEKCEP [KRT26_Y119], the enrichment score is reported as inactive: 1.02. For EQLQSYQAEII [KRT33A_Y268], the enrichment score was inactive: 0.732. In the case of RMLREYQELMS [KRT74_Y425], the enrichment score is reported as inactive: 0.972. For EAESWYQTKYE [KRT75_Y342], the enrichment score was inactive: 0.842. In the case of RLLCEYQELMN [KRT75_Y434_R432C], the enrichment score is reported as inactive: 1.59. With GLGGGYGGASG [KRT8_Y54] the enrichment score was inactive: 0.716. In the case of SFIGQYSGKKE [L1CAM_Y1229], the enrichment score is reported as inactive: 1.32. With LLANAYIYVVQ [L1CAM_Y418] the enrichment score was inactive: 1.53. For LLANAYIYDVQ [L1CAM_Y418_V421D], the enrichment score was inactive: 1.13. STFVPYEIKVQ [L1CAM_Y784] was tested, and the enrichment score was inactive: 1.21. With KENITYMKSEQ [L1TD1_Y24_R27S] the enrichment score was inactive: 0.601. In the case of RSGIYYKPESL [L2HGDH_Y103_H98R], the enrichment score is reported as inactive: 0.746. In the case of EKKQTYGSCRK [LACTB_Y473_R469K], the enrichment score is reported as inactive: 1.21. With LKYAIYFEARE [LAMA2_Y1258] the enrichment score was inactive: 2.3. In the case of LKFAIYFEARE [LAMA2_Y1258_YF], the enrichment score is reported as active: 5.02. With RLEPVYFVAPA [LAMC2_Y250_D247E] the enrichment score was inactive: 1.03. TQTPPYVKKHP [LARP1B_Y457] was tested, and the enrichment score was inactive: 0.816. With TQTPPYVKKHR [LARP1B_Y457_P462R] the enrichment score was inactive: 1.04.
